Source: the supplement of paper PMC3334620
In all, about 33,000 sequences were measured (“E-score (-0.5 to 0.5)”: median about -0.013, highest 2% from about 0.3 on). The list shows a part of the results.

Molecular target: T1, Msn1 (UniProt P22148)
T1 sequence: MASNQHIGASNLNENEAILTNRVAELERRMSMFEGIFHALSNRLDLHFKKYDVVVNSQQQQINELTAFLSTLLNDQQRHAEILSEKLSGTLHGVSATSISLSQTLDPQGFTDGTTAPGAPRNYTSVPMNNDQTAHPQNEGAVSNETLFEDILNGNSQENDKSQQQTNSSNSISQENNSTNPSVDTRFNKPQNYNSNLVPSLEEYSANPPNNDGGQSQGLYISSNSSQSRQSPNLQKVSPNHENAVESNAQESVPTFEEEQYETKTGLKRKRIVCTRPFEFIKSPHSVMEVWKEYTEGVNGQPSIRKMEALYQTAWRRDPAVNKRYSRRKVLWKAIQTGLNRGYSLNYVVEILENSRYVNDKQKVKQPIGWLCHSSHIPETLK
Test: PBM E-score (8-mer binding enrichment) (E-score (-0.5 to 0.5)); higher = stronger / more preferred TF binding; most listed sequences are background and not binding sites
Conditions: protein concentration: 200 nM; construct: GST-full length
In short: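 E-scores (a modified Wilcoxon-Mann-Whitney statistic) were assigned by the Universal PBM Analysis Suite to every ungapped eight-base word pooled with its reverse complement. The input came from universal all-10-mer Agilent arrays made double-stranded by primer extension and probed with GST-tagged yeast transcription factors at about 100-200 nM. Fluorescent anti-GST detected bound protein, and masliner normalised the scans.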

Sequence	PBM E-score
CACCATCA	-0.185
AAGCTGGA	-0.118
CAATCGAA	0.041
CAAGCCCA	-0.195
GATATAGC	-0.131
TAAAGGGA	0.128
AGATACGG	0.0733
AAGTCCGA	0.149
ATAGCGAG	-0.0338
GACAGGGC	-0.0682
GACTGGGA	-0.0971
ACTCAGCA	-0.0495
AGGTCAAA	0.0719
CTCGTCGC	-0.123
CTCCCAAC	-0.225
AAGAGTGA	0.00243
TCTCCAGA	-0.0895
CTACCAAA	-0.0795
AGAACACT	-0.131
GCGTCATA	0.171
ACCTGTGC	-0.069
GGTTGCTA	-0.14
CGAGTGAG	0.102
GTCTTCGA	0.0438
AGAAAGTC	0.222

Sequence	PBM E-score
ATAAATCG	0.112
GAGTCGAC	0.0439
ACATAGTC	0.184
AACCCGCA	-0.0665
AGGCTTGG	-0.0597
CATACAAG	-0.0747
GGTCAGAA	-0.0609
CCGGAAAC	0.011
GGAATTAA	0.164
CCATGAGC	-0.157
ATGTGTTG	0.0856
CTCCGAAC	0.201
ACTCTCAG	-0.0391
GACAAGCC	0.318
CGTCGACA	0.00562
ACCCTGCT	-0.311
ACGTATGG	0.0875
ACTTCAAG	0.121
ACTGTCTA	0.022
AGGGCAAG	-0.0963
ATACGATG	0.0261
GCTTCGCA	-0.179
AACAGGGG	-0.364
GAGCGAGC	-0.0136
ATGAACAC	0.112

Sequence	PBM E-score
ACGAAAAT	0.177
GCAAAGAA	-0.0403
AAAAATTT	0.219
CACAGCCC	-0.18
GTGAAGGA	0.0132
CAAACCGA	0.042
ACAATAGG	0.0391
ACCAGAGG	-0.249
AATGCATA	0.00118
AATAAAGA	0.179
AGCGGTAA	-0.0367
AGTTAGCA	0.0245
ACTATACG	0.00349
ATAGGCAC	-0.219
ATCGTGGG	0.0926
AGCCCGAT	0.132
TGTCCCAA	0.463
ATAGTCTG	0.157
CGTATCTC	-0.159
AGTGCGAG	-0.103
AGAGGCCA	-0.216
GACTCCTC	-0.149
TCGTCTAA	-0.0666
CCGGGATC	0.0583
CTAAAAAA	0.154

Sequence	PBM E-score
ATGCAAAT	0.00702
ATGAGTGC	-0.0848
GATTTTAA	0.139
ACAACAGG	-0.0002
AACCATCA	0.0325
ATTCATAC	0.129
AGTACTAC	0.233
GCTCTACA	-0.122
GGCTGGCA	-0.274
AGAGAAGC	-0.0783
AAAATCAG	0.217
ATGGATTG	0.016
CTCTTATC	0.229
CTTATCAA	0.129
CAAGGTAA	-0.0377
ATATTCAT	0.133
CATACCGG	0.0489
CCATCTCG	-0.0854
CTGGTGTA	-0.193
ACGATTGG	-0.00479
ATGCCTTC	-0.294
AGGGAGCG	-0.234
AGCGGTTA	-0.0487
ACACCTAC	-0.04
ACCGACCA	-0.0177

Sequence	PBM E-score
ATCAAGGA	-0.057
AAAGATCA	0.0609
ATGTAAAA	0.188
CCTTTCCC	-0.124
CCGTTGAC	-0.12
ACCGTCTC	-0.061
CTTTCCTA	-0.195
AGGTTGGA	-0.0227
ATCGTGTG	0.139
CTGTTGAA	0.118
GTACAAAA	0.416
TACCCCGA	-0.016
ACTCAAGG	-0.202
CAACGTTC	-0.0539
ATTTCACC	-0.0512
CAGTTGTA	0.069
CGTCAATC	0.0734
ATATCCCA	0.115
AGAAGTAG	-0.0797
ATTTTGGC	0.177
ACAGGCCA	-0.0223
ACTTTAAC	-0.0591
ACTGGTTA	-0.0483
AGTGTAAG	0.113
CCCTAAGG	-0.079

Sequence	PBM E-score
ACAAGGGC	-0.077
AGCGGAGA	-0.00013
GATTGCGC	0.102
TCAGTCAA	-0.00996
CGCGGAAC	0.0407
ACAGCCAA	-0.0759
GGCGACAA	0.069
CAGGGCGC	-0.23
AATCTCCT	-0.206
AGGCGACG	-0.143
GGGGACCC	-0.352
CCCGTGAC	-0.194
ACTATATC	0.0372
GTCGGATA	0.0474
ATGGAGAG	-0.0424
CGAGGCCA	-0.166
CATAGCTA	-0.193
CCGGAGAC	0.111
ACAGACCA	0.125
ATAGAACC	-0.14
CAGAGGAC	0.0901
ACTAGTAT	0.0508
ACGGATCT	0.0114
GTGGGCGA	0.0429
GTATTCGA	-0.237

Sequence	PBM E-score
CCATGAAA	0.187
CTAGCCAC	-0.227
GCGTTGTA	0.0495
ATCACCAG	0.0155
GGTAGTCA	-0.119
ACTGAAAA	0.0891
CGCGGATA	0.0372
CTTAGCTA	-0.284
ACGCCTCG	-0.0821
CTTCTCTC	-0.0293
TAAAGAAA	0.159
AGCTACGC	-0.186
ACGAACGC	-0.00437
ACGTTAGG	-0.23
GGAACTCA	-0.0378
AGTAGCAC	-0.212
TCATGGAA	-0.00281
ACATGGGT	0.192
TCATAGGA	0.124
AAGGATAG	-0.00248
CTGACCGC	-0.0999
ACAAGGGT	0.123
GCAATCGA	0.00159
ACGTCATG	0.0841
ATTACGCG	-0.059

Sequence	PBM E-score
ACCAGCGA	-0.107
CGGGTAAC	0.0115
ATCCTCAA	-0.125
CAGCCGCA	-0.258
ACCTTTGA	-0.12
AAATTAGA	0.248
TCCAATCA	0.0389
CTCGTTGA	-0.0736
CACCGGAA	0.0679
CCATGTGA	-0.239
ATTGACAG	-0.0324
GAAAGTCC	0.283
GAATTCAC	0.0269
GTATCCAA	-0.0751
TATTGGGA	0.06
GGAGGACC	-0.25
AGATTTTA	-0.099
AGACTCAG	-0.146
AGGACTGC	-0.198
CACCGATG	0.0734
CCCGATTA	0.254
CTTCGGGC	-0.0967
GGTACTAC	-0.00851
GCGAAGCA	-0.0391
CGCAGTTC	0.0141

Sequence	PBM E-score
AGTAGCCC	-0.101
AGTGGCAT	0.0641
CCACTAAG	0.112
CGGACTAA	0.248
AGTTTTGC	0.0902
TAGCTAAA	-0.0924
GGGAAGAC	-0.0284
AGGGATGG	-0.288
CACACCAG	-0.0684
ACGACGCA	-0.00086
AATCCCCA	-0.0837
CTGCACAG	-0.107
ATTATATA	0.262
AGGCCGCA	-0.207
CCGACACA	-0.0231
CGATATCA	-0.0294
GCCGGTGA	-0.18
AATCGCCG	-0.00799
CACCGTCC	0.00606
ACTGTTCA	-0.151
AGGTCCAT	0.122
CACTCACA	-0.175
TCGCTAAA	0.0756
AACGCAGC	-0.021
AAGGTAGT	-0.151

Sequence	PBM E-score
CGCTTGAG	-0.0838
AAGCGACA	0.222
GACACATA	0.361
AGGAACTC	-0.173
AGTAACGA	0.028
AATTTCGT	0.188
AGATAAAA	0.183
TAGATCAA	0.0543
CACATTAA	-0.0475
CAATCTGG	-0.0689
AAAGTGAT	0.0511
GACCCACC	-0.112
GATACCCA	0.0835
AACGCTCC	0.00232
ACTAAAGC	0.147
AAAGCGTA	-0.135
GCACGATA	-0.012
ATCAGGCA	-0.108
ACCTCTCT	-0.18
AGCCTGAC	-0.218
GCATGTAA	-0.12
AAACAGCC	-0.194
ATGATTGG	0.0179
GCTACGAA	-0.0787
ACTCATCC	-0.00862

Sequence	PBM E-score
CATACCTC	0.0928
CACGTATA	-0.0381
CCTGGGCA	-0.239
ATTAAGCG	-0.00091
CGTCCGGA	0.331
ACGTCTAT	-0.0785
AGCGTTCA	-0.11
GGCAAACC	-0.244
CATCGGAC	0.188
AAATCTGA	0.0408
AGCTATGA	0.003
GCGGTGAA	-0.0785
TAACCTCA	-0.0824
CCATCAAG	-0.193
ACCATCCA	-0.107
AGAAAACG	0.00718
GGACTCCA	-0.0724
CCCCATGA	-0.0806
CCGTATAG	-0.0743
GTCTTTAA	0.135
CTACGTGC	-0.277
ATTTTATG	0.196
CCAGTACG	-0.0732
AGACATAA	0.373
GCAGAAGA	-0.116

Sequence	PBM E-score
AGTCTGAG	-0.1
ATCGCGGG	-0.0707
AGTTAAGG	0.00694
ACATAGCA	0.113
TAGGAATA	0.0598
CTATTTAA	0.0263
ACTGCTCG	-0.00898
AGTCAGGA	-0.0116
TCGAGAAA	0.139
AGGGAAGC	-0.122
GCGGGGAA	0.0187
GAAGGCCC	-0.2
CCTTCCCG	-0.199
CTGCCAAG	-0.103
AGAAAAAG	-0.0022
CGGGCCGA	-0.0715
TTCAAGAA	0.172
CCGAATGC	0.0112
TCCTAGCA	-0.0856
GGTTGTAA	0.0159
AGGACTAG	0.273
GATGCACC	-0.127
GATTGCCC	-0.0176
CGTTTGTC	0.44
ACTGCTTC	-0.239

Sequence	PBM E-score
CTAACCAC	0.0856
CAAGAAGG	-0.143
AATGTTCA	0.27
GTGGACCA	-0.0617
AGACTGAT	-0.134
GGTCGGTA	0.0288
CGGGGGCC	-0.373
CACTCTGC	0.127
GTCCGTGA	0.281
CGTCAAGC	-0.00551
TCGGCTCA	-0.0545
GCCATGGA	-0.0409
GAGTACGA	0.066
GCAGTATA	0.0241
CGTCGCGA	0.132
ACCTGGCT	-0.175
AACATGAC	0.0901
TATCGGAA	0.189
CTAGCGAC	-0.0316
AATCCCAG	-0.00923
GTGCCCTA	-0.216
GTCGCTTA	0.0727
AGTCCATC	0.0698
ATAGACTC	-0.291
CAACCTTA	-0.038

Sequence	PBM E-score
CTTAATTA	0.0858
CAGACTAC	-0.051
CAAGCCAA	0.0988
GAGTAGCA	-0.00134
AGGCCTGG	-0.0852
ACACAGCG	0.203
TAGTCCAA	0.11
CGTTCCAC	-0.174
ACATACGA	0.29
ACATCGTA	0.0275
AGTACTGG	-0.185
ATGTTTGC	-0.0389
TCGTTCCA	-0.126
ATTAAAGA	0.209
GTGATGGA	-0.0691
TCCGTGCA	0.145
ACTACTCA	-0.068
ACGTACGT	0.0825
CGGCCTAG	-0.0976
